Hit rate of the full screen: of about 310,000 compounds, about 2,200 (0.71%) showed an effect of 50% or more. The effect is printed as a negative number. This is one part of the list.

Data on 90 molecules can be found in publication PMC4336329 (PLoS ONE, 2015).

The target of this experiment is human ether-à-go-go-related gene (hERG) potassium channel (human, UniProt Q12809). The experiment can be described thus: primary screen, population patch clamp on CHO cells stably expressing hERG.
human ether-à-go-go-related gene (hERG) potassium channel, sequence (Q12809 whole entry, looked up): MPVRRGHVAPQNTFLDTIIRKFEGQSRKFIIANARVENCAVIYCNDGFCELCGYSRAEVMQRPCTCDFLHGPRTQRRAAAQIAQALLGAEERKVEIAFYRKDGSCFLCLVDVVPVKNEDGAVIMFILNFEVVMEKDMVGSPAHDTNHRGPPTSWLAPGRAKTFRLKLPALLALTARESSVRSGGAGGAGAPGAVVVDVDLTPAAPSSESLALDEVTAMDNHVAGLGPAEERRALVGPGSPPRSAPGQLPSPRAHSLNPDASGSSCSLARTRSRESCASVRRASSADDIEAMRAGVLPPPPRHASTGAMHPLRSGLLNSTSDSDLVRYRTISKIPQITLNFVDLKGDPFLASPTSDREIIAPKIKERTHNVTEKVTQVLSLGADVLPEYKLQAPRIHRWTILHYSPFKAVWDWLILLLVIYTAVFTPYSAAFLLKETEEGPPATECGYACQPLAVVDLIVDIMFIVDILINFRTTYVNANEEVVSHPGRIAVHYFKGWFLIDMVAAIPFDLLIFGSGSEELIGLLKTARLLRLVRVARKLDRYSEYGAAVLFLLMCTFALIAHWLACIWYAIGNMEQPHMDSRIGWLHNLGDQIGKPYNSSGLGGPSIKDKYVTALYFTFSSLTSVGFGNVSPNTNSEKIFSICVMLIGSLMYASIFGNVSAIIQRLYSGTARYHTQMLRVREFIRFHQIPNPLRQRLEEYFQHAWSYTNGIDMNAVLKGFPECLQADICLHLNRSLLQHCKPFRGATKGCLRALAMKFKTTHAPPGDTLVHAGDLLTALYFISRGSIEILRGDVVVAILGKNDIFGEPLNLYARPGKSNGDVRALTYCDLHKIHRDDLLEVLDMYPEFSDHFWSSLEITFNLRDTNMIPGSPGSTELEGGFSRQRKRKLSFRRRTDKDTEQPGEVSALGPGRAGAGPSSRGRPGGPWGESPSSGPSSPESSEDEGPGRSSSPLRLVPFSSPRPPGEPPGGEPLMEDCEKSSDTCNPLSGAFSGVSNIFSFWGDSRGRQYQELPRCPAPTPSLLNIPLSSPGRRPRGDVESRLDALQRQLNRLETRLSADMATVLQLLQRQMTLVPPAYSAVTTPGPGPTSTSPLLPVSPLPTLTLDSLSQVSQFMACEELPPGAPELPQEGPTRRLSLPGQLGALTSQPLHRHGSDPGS
As for `Cc1sc2ncnc(N3CCC(C(=O)NCC(=O)Nc4ccc(F)c(F)c4)CC3)c2c1C`, the “hERG current change (%, negative = inhibition) at 1uM” value is -32.5%.
As for `COc1ccc(/C=C2\SC(=O)N(CC(=O)N(C)C3CCS(=O)(=O)C3)C2=O)cc1` (stereo not drawn), the “hERG current change (%, negative = inhibition) at 1uM” value amounted to 11%.
On to `O=[n+]1c2c(n([O-])c3ccccc31)CCC2`, for which the “hERG current change (%, negative = inhibition) at 1uM” value stood at 5.78%.
For `Cc1ccc(Cl)cc1NC(=S)N/N=C/c1cccc2ccccc12` the value was 0.535%; for `O=C(CCCSc1nc2ccccc2[nH]1)NCc1ccccc1`, -2.35%; for `CCn1c(SCC(=O)c2cc(C)ccc2C)nc2cc(S(=O)(=O)N3CCOCC3)ccc21`, 5.92%.
As for `COC(=O)/C=C1\C(=O)N(c2nc3ccccc3s2)C(=S)N1c1ccc(F)cc1`, the “hERG current change (%, negative = inhibition) at 1uM” value was found to be 15%.
Consider `COc1cccc(-n2c(Cc3cc(=O)[nH]c(=O)[nH]3)nnc2SCc2cccc(C(F)(F)F)c2)c1`, for which the “hERG current change (%, negative = inhibition) at 1uM” value was found to be 12.4%.
As for `Cn1nc(C(=O)NCCN2CCOCC2)c2ccccc2c1=O`, the “hERG current change (%, negative = inhibition) at 1uM” value was found to be 15.8%.
As to `COc1ccc(C(=O)Nc2ccccc2C(=O)NC(C)C)cc1OC`, the “hERG current change (%, negative = inhibition) at 1uM” value amounted to 1.11%.
In the case of `CN1CCN(C/C(=C2/N=C(c3ccccc3)OC2=O)N(C)C)CC1` it was -16.9%.
With `COc1ccc(C(=O)NC2CCN(S(=O)(=O)c3ccc(C)cc3)CC2)cc1`, the “hERG current change (%, negative = inhibition) at 1uM” value is reported as 13.3%.
`CCCCC(=O)Nc1ccc(NC(=S)NC(=O)c2cccs2)cc1OC`: the “hERG current change (%, negative = inhibition) at 1uM” value came out at 6.75%.
Turning to `NNC(=O)c1cc(-c2ccccc2)sc1N`, the “hERG current change (%, negative = inhibition) at 1uM” value is on record as 4.23%.
For `Oc1[nH]c(=S)sc1/C=C1\C(c2ccccc2)=Nc2ccccc21` the value was 25.4%; for `Cc1c(C)c2c(C)[nH]nc2oc1=O`, 11.4%.
On to `CC(NC(=O)/C(C#N)=C/c1ccc(C(=O)O)cc1)c1ccccc1` (stereo not drawn), for which the “hERG current change (%, negative = inhibition) at 1uM” value was found to be 2.43%.
On to `COC(=O)C1=C(c2ccc(-c3ccccc3)c(F)c2)C[C@@H]2CC[C@H]1N2C(=O)NCC1CC1`, for which the “hERG current change (%, negative = inhibition) at 1uM” value came to 17.9%.
For `Cc1[nH][nH]c(=O)c1N=Nc1ccccc1C#N` the value was 10.7%; for `CN(CC(=O)Nc1ccc(C#N)cc1)Cc1ccc(Cl)cc1`, -41.4%; for `CC(NC(=O)CCSCCC(=O)NC(C)c1ccccc1)c1ccccc1` (stereo not drawn), 5.46%.
Consider `O=C(O)c1ccccc1C(=O)NNC(=O)C(c1ccccc1)c1ccccc1`, for which the “hERG current change (%, negative = inhibition) at 1uM” value came out at 9.92%.
In the case of `O=C(CNC(=O)c1ccc(N2C(=O)c3ccccc3C2=O)cc1)OCC(=O)c1ccc(Cl)cc1` it was -0.099%; in that of `COc1ccccc1NC(=S)N1CCN(c2ccccn2)CC1`, 15.5%.
For `CCN1C(C#N)=C(C#N)N=C(C)CC1(C)C` the value was -1.54%; for `O=C1C=CC(=O)C(C2=C3C(=O)N(CCc4ccccc4)CC(=O)N3CCC2)=C1`, 8.14%; for `C=CCOc1ccc(/C=C/C(=O)OCC(=O)NCc2cccs2)cc1`, 13.4%.
Consider `Cc1ccc(C(=O)NC2CCN(CC(=O)Nc3cccc([N+](=O)[O-])c3)CC2)cc1`, for which the “hERG current change (%, negative = inhibition) at 1uM” value was -39.5%.
With `Cc1ccc(NS(=O)(=O)c2cccc(C(=O)NCC(c3ccco3)N3CCCCC3)c2)cc1` (stereo not drawn), the “hERG current change (%, negative = inhibition) at 1uM” value came out at 1.94%.
For `O=C(Nc1ccccc1)c1nc[nH]c1C(=O)N1CCN(c2ccccc2)CC1`, the “hERG current change (%, negative = inhibition) at 1uM” value is 9.77%.
As to `CCn1c(SCC(=O)c2ccccc2)nnc1-c1cccnc1`, the “hERG current change (%, negative = inhibition) at 1uM” value was -4.55%.
In the case of `Cc1ccc(-c2noc(C3CCCN(C(=O)c4cccc(F)c4)C3)n2)cc1` (stereo not drawn) it was 12.6%; in that of `COC(=O)c1ccccc1CSc1nsc(/C=C/N(C)C)c1C#N`, 14.6%; in that of `CC(=O)c1cccc(S(=O)(=O)N2CCC(C(=O)O)(c3ccccc3)CC2)c1`, 11.2%.
As for `O=C(c1ccco1)N1CCN(C(=S)Nc2ccc(Br)cc2Cl)CC1`, the “hERG current change (%, negative = inhibition) at 1uM” value is listed as -3.58%.
Take `CCCOc1ccc(-c2nnn(CC(=O)c3c[nH]c4ccccc34)n2)cc1`: the “hERG current change (%, negative = inhibition) at 1uM” value is recorded as 10.8%.
In the case of `COc1ccc(C)cc1NC(=O)C1CCCN1C(=O)OCc1ccccc1` (stereo not drawn) it was 3.53%.
In the case of `COc1cccc(/C=C2\SC(=N)N(c3ccc(F)cc3)C2=O)c1` it was 8.04%; in that of `CCOc1ccccc1NC(=O)Cn1cnc2c(cnn2-c2ccc(C)c(C)c2)c1=O`, 6.42%; in that of `CSc1cc(C)n(-c2ccc(Cl)cc2)c(=S)c1C(C)=O`, -20.9%.
For `CC(=O)c1ccc(OCc2cc(C(=O)NC(C)CCn3cccn3)no2)cc1` (stereo not drawn) the value was 3.44%.
Take `CCCc1nnc(NC(=O)c2ccc([N+](=O)[O-])cc2)s1`: the “hERG current change (%, negative = inhibition) at 1uM” value was determined as 16.9%.
Consider `CCc1ccc(S(=O)(=O)NC(=S)NC2CCCCC2)cc1`, for which the “hERG current change (%, negative = inhibition) at 1uM” value was found to be 11%.
Take `CC1(C)CC(=O)C=C(NC2CC(C)(C)NC(C)(C)C2)C1`: the “hERG current change (%, negative = inhibition) at 1uM” value amounted to 14.7%.
In the case of `CCOc1ccc(-c2nn[nH]n2)cc1` it was -6%; in that of `CCOC(=O)c1c(NC(=O)c2ccccc2C(=O)O)sc2c1CCCC2`, 16.3%.
Turning to `CCCc1cc(NCC2CCCO2)n2c(nc3ccccc32)c1C#N` (stereo not drawn), the “hERG current change (%, negative = inhibition) at 1uM” value is -8.59%.
Take `COc1ccccc1NCCC(=O)OCC(=O)NC1CC1`: the “hERG current change (%, negative = inhibition) at 1uM” value is reported as -0.487%.
Regarding `COc1ccccc1C(=O)NN1C(=O)C2C3C=CC(O3)C2C1=O` (stereo not drawn), the “hERG current change (%, negative = inhibition) at 1uM” value amounted to 16.5%.
With `COc1ccc(NC(=O)c2cc(F)cc(F)c2)cc1Cl`, the “hERG current change (%, negative = inhibition) at 1uM” value was determined as 9.92%.
For `S=C(Nc1ccccc1)Nc1ccc(Br)cc1` the value was 14.5%.
For `COc1ccc(-c2cc3ncc(C(C)=O)c(C)n3n2)cc1` the value was 19.5%; for `Clc1ccc(-c2ncc3ccccn23)c(Cl)c1`, 8.92%; for `CC(OC(=O)CCC(=O)c1ccc(Cl)s1)C(=O)NC1(C#N)CCCCC1` (stereo not drawn), -7.9%.
With `COc1c(C)cc(S(=O)(=O)NCc2ccccn2)c(C)c1C`, the “hERG current change (%, negative = inhibition) at 1uM” value stood at 9.43%.
For `COc1ccccc1Nc1nc(Cl)nc(Nc2ccccc2OC)n1` the value was 1.48%; for `O=C(Cc1ccccc1)NN1C(=O)C2C3C=CC(C4CC34)C2C1=O` (stereo not drawn), 6.62%.
On to `CC(Nc1ncnc2nc[nH]c12)c1ccccc1` (stereo not drawn), for which the “hERG current change (%, negative = inhibition) at 1uM” value is given as 12%.
For the molecule `CC(C)(C)c1cc(CCC(=O)NNC(=O)c2ccncc2)cc(C(C)(C)C)c1O`, the “hERG current change (%, negative = inhibition) at 1uM” value is recorded as 4.04%.
In the case of `CC(=O)Nc1ccc(S(=O)(=O)N2CCCC2C(=O)Nc2ccc3c(c2)OCCO3)cc1` (stereo not drawn) it was 13.6%; in that of `O=C(CCNC(=O)c1ccccc1Cl)Nc1nc(-c2ccc(F)cc2)cs1`, -1.9%; in that of `COCC(=O)Oc1c(Sc2ccccc2[N+](=O)[O-])c(C)nn1C(C)(C)C`, 3.05%.
For the molecule `Cn1cnnc1SCC(=O)NCCC(c1ccccc1)c1ccccc1`, the “hERG current change (%, negative = inhibition) at 1uM” value stood at 11.6%.
For `O=C(CSc1nnnn1C1CCCC1)Nc1ccccc1N1CCOCC1` the value was 18.1%.
For `Cc1c[n+]([O-])ccc1Oc1ccc([N+](=O)[O-])cc1` the value was 10.9%; for `CCN(CC)CCOc1ccc2nc(N(C)C)sc2c1.Cl`, 13.7%.
Take `O=c1nc2ccccc2c2n1CC(CN1CCN(c3ccc(F)cc3)CC1)N2` (stereo not drawn): the “hERG current change (%, negative = inhibition) at 1uM” value is listed as -65.6%.
For `Cl.OCCN(CCO)CC(O)COCCC12CC3CC(CC(C3)C1)C2` (stereo not drawn) the value was 11.7%; for `Cc1cc(S(=O)(=O)Nc2cccc(Cl)c2)c(C)s1`, 12.1%; for `CC(C)(C)c1ccc(S(=O)(=O)NNC(=O)C2CCN(Cc3cccc(F)c3)CC2)cc1`, 12.8%.
For `CCOC(=O)c1oc2ccccc2c1COC(=O)CNC(=O)c1ccccc1` the value was 22.8%.
In the case of `CCOC(=O)Cc1nnc(NC(=O)COc2ccc(OC)cc2)s1` it was -4.33%; in that of `Cc1[nH]c2ccccc2c1C(=O)C(=O)N1CCN(C)CC1`, 17.2%; in that of `O=C(CN1CCCCC1)Nc1ccc(S(=O)(=O)N2CCCCCC2)cc1`, 10.3%.
With `CCOC(=O)c1c(C)[nH]c(C)c1S(=O)(=O)NCc1ccccc1OCC`, the “hERG current change (%, negative = inhibition) at 1uM” value came out at 21.2%.
In the case of `Cc1cn2c(-c3cccnc3)nnc2s1` it was -10.1%; in that of `COc1ccc(N2CCN(C(=O)COC(=O)c3oc4ccccc4c3C)CC2)cc1`, 3.04%.
Turning to `COc1cc(C(=O)NC(=S)Nc2ccccc2N2CCCC2)cc(OC)c1OC`, the “hERG current change (%, negative = inhibition) at 1uM” value stood at 17.4%.
For `COc1ccc(OCc2cccc(C(=O)N3CCCC3)c2)cc1` the value was 8.09%.
Take `CCOC(=O)[C@H]1[C@H]2COc3ccc(Cl)cc3[C@@H]2N2C(=O)c3ccc(C)cc3NC(=O)[C@@]12C`: the “hERG current change (%, negative = inhibition) at 1uM” value turned out to be 14.7%.
Regarding `C=CCNC(=S)Nc1ccc2nc(C)oc2c1`, the “hERG current change (%, negative = inhibition) at 1uM” value is given as 13.8%.
As to `COc1ccc(C2CC(c3cccs3)=NN2C(=O)CCC(=O)O)cc1` (stereo not drawn), the “hERG current change (%, negative = inhibition) at 1uM” value was determined as 12.1%.
In the case of `CC12C=CC3(O1)C(C(=O)N(c1ccccc1)C3C(=O)NC1CCCC1)C2C(N)=O` (stereo not drawn) it was -5.45%.
For `CC[n+]1c(/C=C/c2ccc(OC)c(OC)c2)ccc2ccccc21.[I-]` the value was 13.8%; for `CCOC(=O)C1=C(C)N=C2SC(CC)C(=O)N2C1c1cccc(F)c1` (stereo not drawn), -18.9%.
In the case of `Cn1c(O)c(C=Nc2ccc3c(c2)CCC3)c(=O)n(C)c1=O` it was 4.24%; in that of `C/C(=N/Nc1nc(C)cc(-c2ccccc2)n1)c1ccco1`, 9.96%; in that of `O=C(Cn1nnc(-c2cccs2)n1)N1CCOCC1`, 1.2%.
Turning to `O=C(CCSc1ccccc1)Nc1ccc(S(=O)(=O)N2CCOCC2)cc1`, the “hERG current change (%, negative = inhibition) at 1uM” value came to 4.72%.
In the case of `Cc1ccc(C(=O)N2N=C(c3ccc(Br)cc3)CC2c2ccccc2O)cc1` (stereo not drawn) it was 9.71%.
